Source: PubChem BioAssay AID1347120 (National Center for Advancing Translational Sciences (NCATS), 2019)
Hit rate of the full screen: of about 390,000 compounds, about 930 (0.24%) were called active. Inconclusive means that the source gave no clear call. Such entries were picked first, then a sample of the others. Calls come from the whole dose curve; as a rule, active = well fitted activation curve with a large enough effect; inconclusive = small, poorly fitted or top-dose-only effect; inactive = no such curve, though single readings can be large or run the other way. Where the call is inconclusive, the potency comes from a doubtful curve fit.

experiment: qHTS for Suppressors of FUS Proteinopathy: Primary screen using FUS-linked yeast assay; note: nearly all actives have a fitted effect of over 55% in size;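 for growth rescue (activation): plate controls were DMSO vehicle for no effect and reference control for full effect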; settings: S. cerevisiae FUS-expressing, OD600, 24 h; Potency: growth rescue; growth rescue (activation): at 76.6 µM (top of the series)
How it was run: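 Yeast FUS proteinopathy model; galactose-induced FUS (2%), starting OD 0.005. Cpds in dilution series, 24hr, 30C, 99% humidity. Abs 600 nm growth. Pos ctrl CP55940 (top 92uM final); neg ctrl DMSO.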
Potency is the fitted concentration of half-maximal effect; tags give direction and shape of the fitted curve.

Row | SMILES | Potency | growth rescue (activation)
1 | CN(C)c1cccc(NC(=O)c2cccc3ccccc23)c1 | inconclusive: 50.1 µM [activator, partial curve, poor fit] | –
2 | CCC(=O)N1CCN(c2ccccc2NC(=O)COc2cc(C)ccc2C(C)C)CC1 | inconclusive: 25.1 µM [activator, single point] | –
3 | CCN(CC)c1ccc(Nc2nc(N3CCOCC3)c3ccccc3n2)cc1 | inactive | –
4 | COc1ccccc1NC(=O)CSC1=Nc2ccccc2N=C(c2ccc(F)cc2)C1 | inactive | –
5 | CC(=O)Nc1cccc(Oc2ncnc3scc(-c4ccc(C(C)C)cc4)c23)c1 | inconclusive: 50.1 µM [activator, single point] | –
6 | CCOC(=O)COc1c(OC)cc(Cl)cc1C1Nc2ccccc2C(=O)N1c1ccccc1 (stereo not given) | inconclusive: 35.5 µM [activator, single point] | –
7 | CC(=O)Nc1ccc(C2=CC(=O)C[C@H](c3ccc(Cl)cc3)C2)cc1 | inconclusive: 35.5 µM [activator, single point] | –
8 | N#Cc1c(NC(=O)COC(=O)c2ccc(O)cc2O)sc2c1CCC2 | inconclusive: 20 µM [activator, partial curve, poor fit] | –
9 | COc1ccc(C(C)(NC(C)=O)c2nc(/C=C/c3ccccc3)cs2)cc1 (stereo not given) | inconclusive: 39.8 µM [activator, single point] | –
10 | CC(=O)NC(CC(=O)Nc1nc(-c2ccc(N(C)S(C)(=O)=O)cc2)cs1)c1ccccc1 (stereo not given) | inconclusive: 28.2 µM [activator, single point] | –
11 | Cc1nn(CCCC(=O)Nc2cccc(F)c2)c(=O)c2c1sc1ccccc12 | inactive | –
12 | COc1cc2c(C(=O)N(C)c3cc(Cl)ccc3OC)cn(CC(C)C)c(=O)c2cc1OC | inactive | –
13 | C=CCNC(=O)c1ccc(C2SCC(=O)N2Cc2ccco2)cc1 (stereo not given) | inconclusive: 15.8 µM [activator, partial curve, poor fit] | –
14 | CCOC(=O)COc1cc2c(C(=O)OCC)c(C)oc2cc1Br | inactive | –
15 | COc1ccc(C)cc1S(=O)(=O)N1CCN(S(=O)(=O)c2cc(C)ccc2OC)C(C)C1 (stereo not given) | inconclusive: 50.1 µM [activator, single point] | –
16 | CC(C)NC(=O)NC(=O)CSc1nnc(COc2ccccc2F)n1C(C)C1CC2CCC1C2 (stereo not given) | inconclusive: 39.8 µM [activator, partial curve, poor fit] | –
17 | O=C(COC(=O)CNC(=O)c1ccc(Cl)cc1Cl)NC1CC1 | inactive | –
18 | O=C1N=C(N2CCc3ccccc3C2)S/C1=C\c1ccc(O)cc1 | inconclusive: 31.6 µM [activator, partial curve, poor fit] | –
19 | O=C(CN1CCCC1)Nc1ccccc1Sc1ccccc1 | inactive | –
20 | Cc1cc(/C=N/NC(=O)c2cccc(N(C)C)c2)c(C)n1-c1cc(C(=O)O)cc(C(=O)O)c1 | inconclusive: 44.7 µM [activator, single point] | –
21 | COc1cccc(Cn2c(CNS(=O)(=O)c3ccc4c(c3)CCCC4)nc3cccnc32)c1 | inconclusive: 39.8 µM [activator, single point] | –
22 | COc1ccc(C)cc1Nc1n[n+](-c2ccccc2)c(-c2ccc(NC(C)=O)cc2)s1 | inconclusive: 35.5 µM [activator, single point] | –
23 | CCC(=O)NC(=S)Nc1cccc(NC(=O)c2ccccc2Cl)c1 | inactive | –
24 | Cc1cc(O)c(-c2ccnc3cc(-c4ccccc4)nn23)cc1Cl | inactive | –

Row | SMILES | Potency | growth rescue (activation)
25 | Oc1ccccc1-c1cc(-c2ccc(F)cc2)n[nH]1 | inactive | –
26 | Cc1ccc(CN=c2c([N+](=O)[O-])nn(-c3ccc(Cl)cc3)n2O)cc1 | inactive | –
27 | C[C@@H]1CCCCO[C@H](CN(C)Cc2ccc(Cl)c(Cl)c2)[C@H](C)CN([C@@H](C)CO)C(=O)c2cc(NC(=O)Nc3ccc(F)cc3)ccc2O1 | active: 35.5 µM | –
28 | c1ccc(Cn2c(-c3ccco3)nc3nc4ccccc4nc32)cc1 | inconclusive: 17.8 µM [activator, partial curve, poor fit] | –
29 | COc1ccc(S[C@]2(C(=O)N(C)C)CC(=O)N(c3ccc(OC)cc3)[C@@H]2c2ccc(OC)cc2)cc1 | inconclusive: 25.1 µM [activator, single point] | –
30 | Cc1ccc(Nc2cc(C(=O)NCc3cccs3)c3ccccc3n2)c(C)c1 | inactive | –
31 | COc1cccc(CN2CCNC(=O)C2CC(=O)NCCn2ccc3ccccc32)c1OC (stereo not given) | inconclusive: 35.5 µM [activator, single point] | –
32 | CC12CCC(=O)C=C1CCC1C2CCC2(C)C1CC1C3C(=O)N(Cc4ccccc4)C(=O)C3CC(=O)C12 (stereo not given) | inconclusive: 25.1 µM [activator, partial curve] | –
33 | COC(=O)[C@]12CCCCC=C1N(CCC1=CCCCC1)C(=O)[C@H](CC(=O)NCCC(C)C)C2 | inconclusive: 44.7 µM [activator, single point] | –
34 | Cc1cccc(C)c1Cn1c(C)c(C(=O)NCc2ccc(C#N)cc2)sc1=O | inconclusive: 50.1 µM [activator, single point] | –
35 | CC1(C)NC(=O)N(CC(O)CN(Cc2ccccc2)Cc2ccccc2)C1=O (stereo not given) | inactive | –
36 | CCOC(=O)N1C(=O)C[C@](Sc2ccc(OC)cc2)(C(=O)N2CCN(C(C)=O)CC2)[C@H]1c1ccc(OC)cc1 | inactive | –
37 | O=C(NCc1ccccc1)c1cc(S(=O)(=O)N2CCOCC2)ccc1F | inconclusive: 7.94 µM [activator, partial curve, poor fit] | –
38 | Cc1cccc(Cn2c(=O)oc3ccc(C)cc32)c1 | inactive | –
39 | CCOc1ccc(S(=O)(=O)N(C(=O)c2ccncc2)c2ccc3oc(C)c(C(=O)OC)c3c2)cc1 | inconclusive: 25.1 µM [activator, partial curve, poor fit] | –
40 | ClCC1NCC(c2ccccc2Cl)c2c1[nH]c1ccccc21 (stereo not given) | inactive | –
41 | CCCCCCCCN1C(=O)[C@H](CC(=O)N2CCN(C(=O)c3ccco3)CC2)C[C@@]2(C(=O)OC)CC(C)(C)CC=C12 | inconclusive: 3.98 µM [activator, full curve, poor fit] | –
42 | Cc1nn(-c2cccc(Cl)c2)c2c1C(c1ccncc1)C(C#N)=C(N)O2 (stereo not given) | inconclusive: 50.1 µM [activator, single point] | –
43 | O=C([C@@H]1C[C@H]1c1ccccc1)N1CC[C@H]2[C@H](CCCN2Cc2ccc(F)cc2)C1 | inactive | –
44 | COc1ccccc1OCC#CCNC1CCCCC1C (stereo not given) | inactive | –
45 | O=c1oc2cc(O)ccc2cc1-c1nc2ccccc2o1 | inactive | –
46 | COc1cc(OC)c2c(-c3cccc(-c4cccc(N)c4)c3)cc(=O)oc2c1 | inconclusive: 50.1 µM [activator, single point] | –
47 | CC(C)(C)c1ccc(C(=O)N2CCN(CCNC(=O)C(=O)NCc3ccc(Cl)cc3)CC2)cc1 | inactive | –
48 | COc1ccc(NC(=O)CSC2=Nc3ccccc3C3=NC(CCC(=O)NCCc4ccccc4)C(=O)N23)c(OC)c1 (stereo not given) | inactive | –

Row | SMILES | Potency | growth rescue (activation)
49 | CSc1nc(C)c(CCOC(=O)c2cccc(Cl)c2)c(=O)[nH]1 | – | inconclusive: 72.5% [activator]
50 | N#Cc1ccncc1Sc1ccc(Cl)cc1 | inactive | –
51 | O=C(NCc1ccco1)c1ccc2c(c1)N(Cc1ccccc1F)C(=O)c1ccccc1S2=O (stereo not given) | inconclusive: 15.8 µM [activator, partial curve, poor fit] | –
52 | Cc1ccc(-c2ccc(CN3C(C(C)C)C(=O)N(Cc4cn(CCC5OCCCO5)nn4)CCS3(=O)=O)cc2)cc1 (stereo not given) | inconclusive: 28.2 µM [activator, single point] | –
53 | Cc1sc2ncnc(N3CCC(C(=O)NNC(=O)COc4ccc(Cl)cc4)CC3)c2c1C | inconclusive: 31.6 µM [activator, single point] | –
54 | Cn1cc(C2(C)CCOc3ccccc32)c2ccccc21 (stereo not given) | inactive | –
55 | Cc1nc2ccccc2nc1OCc1cccc(Cl)c1 | inactive | –
56 | COc1cc(OC)cc(C(=O)NC2CCSC2=O)c1 (stereo not given) | inconclusive: 50.1 µM [activator, single point] | –
57 | O=C(N[C@H]1C/C=C\C[C@H](CC(=O)N(CCO)Cc2ccccc2)C(=O)N[C@@H](c2ccccc2)COC1=O)OCC1c2ccccc2-c2ccccc21 | inconclusive: 28.2 µM [activator, single point] | –
58 | COc1ccc(COC(=O)C2CCN(S(=O)(=O)c3ccc(F)cc3)CC2)cc1 | inactive | –
59 | CC(=O)NCCNC(=O)c1ccc(Cn2c(=O)[nH]c3ccsc3c2=O)cc1 | inactive | –
60 | COc1ccccc1Cn1c(CNS(=O)(=O)c2cccc([N+](=O)[O-])c2)nc2cccnc21 | inconclusive: 50.1 µM [activator, single point] | –
61 | CC(C)CNc1oc(-c2ccco2)nc1C#N | inactive | –
62 | COc1ccccc1NC(=O)Nc1nc(CC(=O)N2CCN(c3ccc(F)cc3)CC2)cs1 | inconclusive: 25.1 µM [activator, partial curve, poor fit] | –
63 | O=C(Cc1ccccc1)Nc1ccc(NC(=O)C2CCCCC2)nc1 | inactive | –
64 | CCc1ccccc1NC(=O)COc1cccc(-n2cnnn2)c1 | inactive | –
65 | Cc1ccc(-c2nonc2NC(=O)c2ccco2)cc1C | inactive | –
66 | Cc1ccc(C)n1-n1c(C)nc2scc(-c3cccs3)c2c1=O | inconclusive: 28.2 µM [activator, partial curve, poor fit] | –
67 | COc1ccc(OC)c(NC(=O)N2c3ccccc3Sc3ccccc32)c1 | inactive | –
68 | Cc1ccc(-c2csc3ncn(CC#N)c(=O)c23)cc1 | inconclusive: 28.2 µM [activator, single point] | –
69 | CN(C(=O)C1CCCC1)C1CCS(=O)(=O)C1 (stereo not given) | inactive | –
70 | Cc1ccc2[nH]c(=O)c(CN(Cc3ccco3)C(=O)N3CCOCC3)cc2c1 | inactive | –
